Results are given in words; binding and its absence hold for the method and conditions named. In cells and extracts the contact can be indirect. Some results given as binding are weak or reduced against the parent protein; the word gives no strength. Where a sequence is shown, tags or fusion partners need not be part of it.

Experimental findings from PMC11831438 are described below.

Experiment [1] has as its target T1, Myc‐SENP6 (Sentrin/SUMO‐specific protease 6) (UniProt Q9GZR1).
T1 sequence: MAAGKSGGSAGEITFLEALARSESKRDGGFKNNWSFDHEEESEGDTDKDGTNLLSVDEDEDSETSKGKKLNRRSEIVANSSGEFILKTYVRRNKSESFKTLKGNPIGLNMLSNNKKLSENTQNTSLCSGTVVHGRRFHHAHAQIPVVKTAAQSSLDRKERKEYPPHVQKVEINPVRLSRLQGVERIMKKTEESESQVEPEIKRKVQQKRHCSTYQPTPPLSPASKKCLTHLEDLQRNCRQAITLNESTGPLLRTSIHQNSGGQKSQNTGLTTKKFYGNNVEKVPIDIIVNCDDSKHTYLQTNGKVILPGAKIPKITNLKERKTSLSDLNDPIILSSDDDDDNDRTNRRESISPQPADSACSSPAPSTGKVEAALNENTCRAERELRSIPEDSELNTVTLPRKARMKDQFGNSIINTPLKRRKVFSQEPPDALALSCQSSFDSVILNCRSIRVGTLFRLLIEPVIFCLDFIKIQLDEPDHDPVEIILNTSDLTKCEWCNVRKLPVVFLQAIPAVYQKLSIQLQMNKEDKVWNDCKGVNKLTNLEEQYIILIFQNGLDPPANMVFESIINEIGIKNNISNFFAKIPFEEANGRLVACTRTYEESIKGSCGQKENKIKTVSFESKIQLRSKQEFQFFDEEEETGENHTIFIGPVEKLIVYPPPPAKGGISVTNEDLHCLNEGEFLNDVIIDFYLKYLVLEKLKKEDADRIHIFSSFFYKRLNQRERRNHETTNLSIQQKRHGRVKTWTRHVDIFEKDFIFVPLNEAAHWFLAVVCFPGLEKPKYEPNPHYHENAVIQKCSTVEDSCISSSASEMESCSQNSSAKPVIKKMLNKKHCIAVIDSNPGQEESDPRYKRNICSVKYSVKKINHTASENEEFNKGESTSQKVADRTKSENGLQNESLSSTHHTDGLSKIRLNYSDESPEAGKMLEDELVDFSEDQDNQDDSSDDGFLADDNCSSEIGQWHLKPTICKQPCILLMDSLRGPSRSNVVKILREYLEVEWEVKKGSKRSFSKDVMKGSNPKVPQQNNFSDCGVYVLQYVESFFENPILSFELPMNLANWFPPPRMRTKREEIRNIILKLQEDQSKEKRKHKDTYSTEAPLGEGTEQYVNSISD
Kind of experiment: co-IP; HEK293T cells co-transfected with Myc-SENP6 and HA-Nrf2 for 48 h, then treated with Tat-Nrf2 peptide at 5, 10, 15 and 20 µM; the blocked pair.

A further experiment concerns the target GFP‐Cul3 (Cullin 3) (UniProt Q13618). Kind of experiment: co-IP; HEK293T cells (HEK293 as printed for Figure S2C) co-transfected with the tagged constructs for 48 h, in some samples with His-SUMO2 and Flag-Ubc9; lysis in IP buffer at 4 °C, primary antibody overnight, protein A/G agarose 4 h, immunoblot. On the technique in general: Immunoblotting shows a protein as a band on a membrane.

Experiment [2] has as its target T1, Myc‐SENP6 (Sentrin/SUMO‐specific protease 6). Described as above.
Experiment [3] concerns the target T2, HA‐Nrf2‐WT (nuclear factor erythroid 2‐related factor 2) (human) (UniProt Q16236).
T2 sequence: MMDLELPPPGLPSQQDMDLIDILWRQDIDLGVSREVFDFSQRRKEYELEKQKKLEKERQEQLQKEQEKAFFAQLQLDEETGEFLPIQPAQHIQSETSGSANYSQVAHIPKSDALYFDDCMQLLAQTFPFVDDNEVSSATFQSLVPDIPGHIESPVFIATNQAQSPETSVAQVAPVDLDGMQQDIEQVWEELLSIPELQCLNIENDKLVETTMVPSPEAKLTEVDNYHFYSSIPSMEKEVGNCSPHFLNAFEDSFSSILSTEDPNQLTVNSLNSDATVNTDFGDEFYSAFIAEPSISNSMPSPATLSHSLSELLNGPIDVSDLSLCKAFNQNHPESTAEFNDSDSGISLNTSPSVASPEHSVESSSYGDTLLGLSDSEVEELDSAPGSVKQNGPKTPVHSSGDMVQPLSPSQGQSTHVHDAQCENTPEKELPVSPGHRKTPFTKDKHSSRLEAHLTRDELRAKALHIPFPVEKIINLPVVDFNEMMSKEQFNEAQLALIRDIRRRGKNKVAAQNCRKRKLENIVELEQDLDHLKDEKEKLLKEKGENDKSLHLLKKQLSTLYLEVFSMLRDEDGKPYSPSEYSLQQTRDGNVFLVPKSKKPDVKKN
The description is as above.

B1: HA‐Nrf2‐WT (nuclear factor erythroid 2‐related factor 2) (protein, UniProt Q16236 1-605)
chain: MMDLELPPPGLPSQQDMDLIDILWRQDIDLGVSREVFDFSQRRKEYELEKQKKLEKERQEQLQKEQEKAFFAQLQLDEETGEFLPIQPAQHIQSETSGSANYSQVAHIPKSDALYFDDCMQLLAQTFPFVDDNEVSSATFQSLVPDIPGHIESPVFIATNQAQSPETSVAQVAPVDLDGMQQDIEQVWEELLSIPELQCLNIENDKLVETTMVPSPEAKLTEVDNYHFYSSIPSMEKEVGNCSPHFLNAFEDSFSSILSTEDPNQLTVNSLNSDATVNTDFGDEFYSAFIAEPSISNSMPSPATLSHSLSELLNGPIDVSDLSLCKAFNQNHPESTAEFNDSDSGISLNTSPSVASPEHSVESSSYGDTLLGLSDSEVEELDSAPGSVKQNGPKTPVHSSGDMVQPLSPSQGQSTHVHDAQCENTPEKELPVSPGHRKTPFTKDKHSSRLEAHLTRDELRAKALHIPFPVEKIINLPVVDFNEMMSKEQFNEAQLALIRDIRRRGKNKVAAQNCRKRKLENIVELEQDLDHLKDEKEKLLKEKGENDKSLHLLKKQLSTLYLEVFSMLRDEDGKPYSPSEYSLQQTRDGNVFLVPKSKKPDVKKN
Regarding B1, the binding result (in experiment [1]; in the experiment with GFP‐Cul3 (Cullin 3); in experiment [2]) was “binds” throughout.

B2: HA‐Nrf2‐2KR (protein, UniProt Q16236 1-605)
chain: MMDLELPPPGLPSQQDMDLIDILWRQDIDLGVSREVFDFSQRRKEYELEKQKKLEKERQEQLQKEQEKAFFAQLQLDEETGEFLPIQPAQHIQSETSGSANYSQVAHIPRSDALYFDDCMQLLAQTFPFVDDNEVSSATFQSLVPDIPGHIESPVFIATNQAQSPETSVAQVAPVDLDGMQQDIEQVWEELLSIPELQCLNIENDKLVETTMVPSPEAKLTEVDNYHFYSSIPSMEKEVGNCSPHFLNAFEDSFSSILSTEDPNQLTVNSLNSDATVNTDFGDEFYSAFIAEPSISNSMPSPATLSHSLSELLNGPIDVSDLSLCKAFNQNHPESTAEFNDSDSGISLNTSPSVASPEHSVESSSYGDTLLGLSDSEVEELDSAPGSVKQNGPKTPVHSSGDMVQPLSPSQGQSTHVHDAQCENTPEKELPVSPGHRKTPFTKDKHSSRLEAHLTRDELRAKALHIPFPVEKIINLPVVDFNEMMSKEQFNEAQLALIRDIRRRGKNKVAAQNCRKRKLENIVELEQDLDHLRDEKEKLLKEKGENDKSLHLLKKQLSTLYLEVFSMLRDEDGKPYSPSEYSLQQTRDGNVFLVPKSKKPDVKKN
On to B2, for which the binding result in experiment [2] was “no binding”.

B3: HA‐Nrf2‐K110R (protein, UniProt Q16236 1-605)
chain: MMDLELPPPGLPSQQDMDLIDILWRQDIDLGVSREVFDFSQRRKEYELEKQKKLEKERQEQLQKEQEKAFFAQLQLDEETGEFLPIQPAQHIQSETSGSANYSQVAHIPRSDALYFDDCMQLLAQTFPFVDDNEVSSATFQSLVPDIPGHIESPVFIATNQAQSPETSVAQVAPVDLDGMQQDIEQVWEELLSIPELQCLNIENDKLVETTMVPSPEAKLTEVDNYHFYSSIPSMEKEVGNCSPHFLNAFEDSFSSILSTEDPNQLTVNSLNSDATVNTDFGDEFYSAFIAEPSISNSMPSPATLSHSLSELLNGPIDVSDLSLCKAFNQNHPESTAEFNDSDSGISLNTSPSVASPEHSVESSSYGDTLLGLSDSEVEELDSAPGSVKQNGPKTPVHSSGDMVQPLSPSQGQSTHVHDAQCENTPEKELPVSPGHRKTPFTKDKHSSRLEAHLTRDELRAKALHIPFPVEKIINLPVVDFNEMMSKEQFNEAQLALIRDIRRRGKNKVAAQNCRKRKLENIVELEQDLDHLKDEKEKLLKEKGENDKSLHLLKKQLSTLYLEVFSMLRDEDGKPYSPSEYSLQQTRDGNVFLVPKSKKPDVKKN
For B3, in experiment [2], the binding result is reported as “binds”.

B4: HA‐Nrf2‐K533R (protein, UniProt Q16236 1-605)
chain: MMDLELPPPGLPSQQDMDLIDILWRQDIDLGVSREVFDFSQRRKEYELEKQKKLEKERQEQLQKEQEKAFFAQLQLDEETGEFLPIQPAQHIQSETSGSANYSQVAHIPKSDALYFDDCMQLLAQTFPFVDDNEVSSATFQSLVPDIPGHIESPVFIATNQAQSPETSVAQVAPVDLDGMQQDIEQVWEELLSIPELQCLNIENDKLVETTMVPSPEAKLTEVDNYHFYSSIPSMEKEVGNCSPHFLNAFEDSFSSILSTEDPNQLTVNSLNSDATVNTDFGDEFYSAFIAEPSISNSMPSPATLSHSLSELLNGPIDVSDLSLCKAFNQNHPESTAEFNDSDSGISLNTSPSVASPEHSVESSSYGDTLLGLSDSEVEELDSAPGSVKQNGPKTPVHSSGDMVQPLSPSQGQSTHVHDAQCENTPEKELPVSPGHRKTPFTKDKHSSRLEAHLTRDELRAKALHIPFPVEKIINLPVVDFNEMMSKEQFNEAQLALIRDIRRRGKNKVAAQNCRKRKLENIVELEQDLDHLRDEKEKLLKEKGENDKSLHLLKKQLSTLYLEVFSMLRDEDGKPYSPSEYSLQQTRDGNVFLVPKSKKPDVKKN
As to B4, the binding entry in the experiment with GFP‐Cul3 (Cullin 3) is “binds”; in experiment [2] it was “no binding”.

B5: Myc‐SENP6 (Sentrin/SUMO‐specific protease 6) (enzyme, UniProt Q9GZR1 1-1112)
chain: MAAGKSGGSAGEITFLEALARSESKRDGGFKNNWSFDHEEESEGDTDKDGTNLLSVDEDEDSETSKGKKLNRRSEIVANSSGEFILKTYVRRNKSESFKTLKGNPIGLNMLSNNKKLSENTQNTSLCSGTVVHGRRFHHAHAQIPVVKTAAQSSLDRKERKEYPPHVQKVEINPVRLSRLQGVERIMKKTEESESQVEPEIKRKVQQKRHCSTYQPTPPLSPASKKCLTHLEDLQRNCRQAITLNESTGPLLRTSIHQNSGGQKSQNTGLTTKKFYGNNVEKVPIDIIVNCDDSKHTYLQTNGKVILPGAKIPKITNLKERKTSLSDLNDPIILSSDDDDDNDRTNRRESISPQPADSACSSPAPSTGKVEAALNENTCRAERELRSIPEDSELNTVTLPRKARMKDQFGNSIINTPLKRRKVFSQEPPDALALSCQSSFDSVILNCRSIRVGTLFRLLIEPVIFCLDFIKIQLDEPDHDPVEIILNTSDLTKCEWCNVRKLPVVFLQAIPAVYQKLSIQLQMNKEDKVWNDCKGVNKLTNLEEQYIILIFQNGLDPPANMVFESIINEIGIKNNISNFFAKIPFEEANGRLVACTRTYEESIKGSCGQKENKIKTVSFESKIQLRSKQEFQFFDEEEETGENHTIFIGPVEKLIVYPPPPAKGGISVTNEDLHCLNEGEFLNDVIIDFYLKYLVLEKLKKEDADRIHIFSSFFYKRLNQRERRNHETTNLSIQQKRHGRVKTWTRHVDIFEKDFIFVPLNEAAHWFLAVVCFPGLEKPKYEPNPHYHENAVIQKCSTVEDSCISSSASEMESCSQNSSAKPVIKKMLNKKHCIAVIDSNPGQEESDPRYKRNICSVKYSVKKINHTASENEEFNKGESTSQKVADRTKSENGLQNESLSSTHHTDGLSKIRLNYSDESPEAGKMLEDELVDFSEDQDNQDDSSDDGFLADDNCSSEIGQWHLKPTICKQPCILLMDSLRGPSRSNVVKILREYLEVEWEVKKGSKRSFSKDVMKGSNPKVPQQNNFSDCGVYVLQYVESFFENPILSFELPMNLANWFPPPRMRTKREEIRNIILKLQEDQSKEKRKHKDTYSTEAPLGEGTEQYVNSISD
As for B5, the binding entry in experiment [3] was “binds”.
